In article PMC9911399, “Two distinct binding modes provide the RNA-binding protein RbFox with extraordinary sequence specificity”:
Substitutions are numbered along the chain they refer to; changes in the protein carry UniProt numbers. The list shows a part of the results.

B1: UUACUGU (DNA:RNA)
RNA: GGGAGACCGGAAUUCAGAUUGUCCUUACUGUUUAAAUCCCGUCGUAGCCACCA
DNA 1: CAATCTGAATTCCGGTCTCCC
DNA 2: TGGTGGCTACGACGGGATT
B2: AGCUCGG (DNA:RNA)
RNA: B1 RNA with U25A, U26G, A27C, C28U, U29C, U31G
DNA 1: CAATCTGAATTCCGGTCTCCC
DNA 2: TGGTGGCTACGACGGGATT
B3: UCCAGCA (DNA:RNA)
RNA: B1 RNA with U26C, A27C, C28A, U29G, G30C, U31A
DNA 1: CAATCTGAATTCCGGTCTCCC
DNA 2: TGGTGGCTACGACGGGATT
B4: AUUAGGG (DNA:RNA)
RNA: B1 RNA with U25A, A27U, C28A, U29G, U31G
DNA 1: CAATCTGAATTCCGGTCTCCC
DNA 2: TGGTGGCTACGACGGGATT
B5: AGUUGCU (DNA:RNA)
RNA: B1 RNA with U25A, U26G, A27U, C28U, U29G, G30C
DNA 1: CAATCTGAATTCCGGTCTCCC
DNA 2: TGGTGGCTACGACGGGATT
B6: CAGAGCC (DNA:RNA)
RNA: GGGAGACCGGAAUUCAGAUUGUCCCAGAGCCUUAAAUCCCGUCGUAGCCACCA
DNA 1: CAATCTGAATTCCGGTCTCCC
DNA 2: TGGTGGCTACGACGGGATT
B7: CGUCAAA (DNA:RNA)
RNA: B6 RNA with A26G, G27U, A28C, G29A, C30A, C31A
DNA 1: CAATCTGAATTCCGGTCTCCC
DNA 2: TGGTGGCTACGACGGGATT
B8: UGGUGUU (DNA:RNA)
RNA: B6 RNA with C25U, A26G, A28U, C30U, C31U
DNA 1: CAATCTGAATTCCGGTCTCCC
DNA 2: TGGTGGCTACGACGGGATT
B9: CGCUAUC (DNA:RNA)
RNA: B6 RNA with A26G, G27C, A28U, G29A, C30U
DNA 1: CAATCTGAATTCCGGTCTCCC
DNA 2: TGGTGGCTACGACGGGATT
B10: UAUUCGG (DNA:RNA)
RNA: B1 RNA with U26A, A27U, C28U, U29C, U31G
DNA 1: CAATCTGAATTCCGGTCTCCC
DNA 2: TGGTGGCTACGACGGGATT
B11: UCCGGGG (DNA:RNA)
RNA: B1 RNA with U26C, A27C, C28G, U29G, U31G
DNA 1: CAATCTGAATTCCGGTCTCCC
DNA 2: TGGTGGCTACGACGGGATT
B12: ACGCGCG (DNA:RNA)
RNA: B6 RNA with C25A, A26C, A28C, C31G
DNA 1: CAATCTGAATTCCGGTCTCCC
DNA 2: TGGTGGCTACGACGGGATT
B13: UUAGGGA (DNA:RNA)
RNA: B1 RNA with C28G, U29G, U31A
DNA 1: CAATCTGAATTCCGGTCTCCC
DNA 2: TGGTGGCTACGACGGGATT
B14: GAUAAAG (DNA:RNA)
RNA: B6 RNA with C25G, G27U, G29A, C30A, C31G
DNA 1: CAATCTGAATTCCGGTCTCCC
DNA 2: TGGTGGCTACGACGGGATT
B15: CCGCUAU (DNA:RNA)
RNA: B1 RNA with U25C, U26C, A27G, G30A
DNA 1: CAATCTGAATTCCGGTCTCCC
DNA 2: TGGTGGCTACGACGGGATT
B16: CGGCUGC (DNA:RNA)
RNA: B6 RNA with A26G, A28C, G29U, C30G
DNA 1: CAATCTGAATTCCGGTCTCCC
DNA 2: TGGTGGCTACGACGGGATT
B17: CUUAAUA (DNA:RNA)
RNA: B6 RNA with A26U, G27U, G29A, C30U, C31A
DNA 1: CAATCTGAATTCCGGTCTCCC
DNA 2: TGGTGGCTACGACGGGATT
B18: AAGAGCC (DNA:RNA)
RNA: B6 RNA with C25A
DNA 1: CAATCTGAATTCCGGTCTCCC
DNA 2: TGGTGGCTACGACGGGATT
B19: AUGCCAA (DNA:RNA)
RNA: B1 RNA with U25A, A27G, U29C, G30A, U31A
DNA 1: CAATCTGAATTCCGGTCTCCC
DNA 2: TGGTGGCTACGACGGGATT
B20: GCAGCAA (DNA:RNA)
RNA: B1 RNA with U25G, U26C, C28G, U29C, G30A, U31A
DNA 1: CAATCTGAATTCCGGTCTCCC
DNA 2: TGGTGGCTACGACGGGATT
B21: AUCGCGC (DNA:RNA)
RNA: B1 RNA with U25A, A27C, C28G, U29C, U31C
DNA 1: CAATCTGAATTCCGGTCTCCC
DNA 2: TGGTGGCTACGACGGGATT
B22: GUGUAAU (DNA:RNA)
RNA: B1 RNA with U25G, A27G, C28U, U29A, G30A
DNA 1: CAATCTGAATTCCGGTCTCCC
DNA 2: TGGTGGCTACGACGGGATT
B23: AGAUACC (DNA:RNA)
RNA: B6 RNA with C25A, A26G, G27A, A28U, G29A
DNA 1: CAATCTGAATTCCGGTCTCCC
DNA 2: TGGTGGCTACGACGGGATT
B24: CUGGCCG (DNA:RNA)
RNA: B6 RNA with A26U, A28G, G29C, C31G
DNA 1: CAATCTGAATTCCGGTCTCCC
DNA 2: TGGTGGCTACGACGGGATT
B25: CACCCCA (DNA:RNA)
RNA: B6 RNA with G27C, A28C, G29C, C31A
DNA 1: CAATCTGAATTCCGGTCTCCC
DNA 2: TGGTGGCTACGACGGGATT
B26: GUUAACC (DNA:RNA)
RNA: B6 RNA with C25G, A26U, G27U, G29A
DNA 1: CAATCTGAATTCCGGTCTCCC
DNA 2: TGGTGGCTACGACGGGATT
B27: GGCAUAA (DNA:RNA)
RNA: B6 RNA with C25G, A26G, G27C, G29U, C30A, C31A
DNA 1: CAATCTGAATTCCGGTCTCCC
DNA 2: TGGTGGCTACGACGGGATT
B28: AUGCUUC (DNA:RNA)
RNA: B1 RNA with U25A, A27G, G30U, U31C
DNA 1: CAATCTGAATTCCGGTCTCCC
DNA 2: TGGTGGCTACGACGGGATT
B29: CCACGUC (DNA:RNA)
RNA: B6 RNA with A26C, G27A, A28C, C30U
DNA 1: CAATCTGAATTCCGGTCTCCC
DNA 2: TGGTGGCTACGACGGGATT
B30: GUGAUCA (DNA:RNA)
RNA: B6 RNA with C25G, A26U, G29U, C31A
DNA 1: CAATCTGAATTCCGGTCTCCC
DNA 2: TGGTGGCTACGACGGGATT
B31: UCCUAGG (DNA:RNA)
RNA: B1 RNA with U26C, A27C, C28U, U29A, U31G
DNA 1: CAATCTGAATTCCGGTCTCCC
DNA 2: TGGTGGCTACGACGGGATT

Biological target: T1, RBFOX1 RRM (Homo sapiens, UniProt Q9NWB1 109-208)
T1 sequence: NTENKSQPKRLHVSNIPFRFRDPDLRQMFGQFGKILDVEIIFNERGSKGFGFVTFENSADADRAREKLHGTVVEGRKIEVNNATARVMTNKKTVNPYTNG
Experiment: EMSA; HiTS-Eq, 1 nM pool, 10 min; buffer printed only for the single-RNA assays: 10 mM Tris pH 7.5, 150 mM NaCl, 3.4 mM EDTA, 0.001% NP-40, 30 C
Details: tags: His6 N-terminal (pET28a); label: 5' 32P
Procedure, shortened: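 Purified wild-type or mutant RbFox RRM at increasing concentrations was equilibrated with 1 nM of 5′-radiolabelled RNA carrying 7 randomized nucleotides for 10 min in 50 µL. Unbound RNA was separated by 8% native PAGE and sequenced. Relative association constants came from read-count changes of each RNA species compared with the control reaction, normalised to the cognate motif.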

| Binder | binding signal |
| --- | --- |
| B1 | 0.0141 KA relative to UGCAUGU |
| B2 | 0.0167 KA relative to UGCAUGU |
| B3 | 0.0101 KA relative to UGCAUGU |
| B4 | 0.00624 KA relative to UGCAUGU |
| B5 | 0.0135 KA relative to UGCAUGU |
| B6 | 0.00719 KA relative to UGCAUGU |
| B7 | 0.00128 KA relative to UGCAUGU |
| B8 | 0.0267 KA relative to UGCAUGU |
| B9 | 0.00548 KA relative to UGCAUGU |
| B10 | 0.0135 KA relative to UGCAUGU |
| B11 | 0.00368 KA relative to UGCAUGU |
| B12 | 0.0165 KA relative to UGCAUGU |
| B13 | 0.000676 KA relative to UGCAUGU |
| B14 | 0.00983 KA relative to UGCAUGU |
| B15 | 0.00807 KA relative to UGCAUGU |
| B16 | 0.018 KA relative to UGCAUGU |

| Binder | binding signal |
| --- | --- |
| B17 | 0.0012 KA relative to UGCAUGU |
| B18 | 0.00759 KA relative to UGCAUGU |
| B19 | 0.00891 KA relative to UGCAUGU |
| B20 | 0.0107 KA relative to UGCAUGU |
| B21 | 0.0102 KA relative to UGCAUGU |
| B22 | 0.00791 KA relative to UGCAUGU |
| B23 | 0.00702 KA relative to UGCAUGU |
| B24 | 0.0234 KA relative to UGCAUGU |
| B25 | 0.000718 KA relative to UGCAUGU |
| B26 | 0.00212 KA relative to UGCAUGU |
| B27 | 0.00272 KA relative to UGCAUGU |
| B28 | 0.0112 KA relative to UGCAUGU |
| B29 | 0.00535 KA relative to UGCAUGU |
| B30 | 0.00832 KA relative to UGCAUGU |
| B31 | 0.0095 KA relative to UGCAUGU |
